Measurements as given in paper PMC4383008.
Results are given in words; binding and its absence hold for the method and conditions named. In cells and extracts the contact can be indirect. Some binding calls cover weakened binding; strength is not graded here. For some assays here: Where a sequence is shown, tags or fusion partners need not be part of it. One block for each binder: values may come before it.

Assays:
[1] = biological target: GluA2 AMPAR subunit, endogenous in mouse brain lysate (mouse (endogenous in mouse brain)), P23819; assay: co-IP; wild-type mouse brain lysate (HBST buffer), in presence of 3 mM GTPγS; precipitated with anti-GluA2, 24 h at 4 °C; conditions: remark: other sources report otherwise
GST-PICK1 [2] = biological target: GST-PICK1 (UniProt Q9EP80); assay: pull-down; 80 μg GST-PICK1 on glutathione-Sepharose 4B beads, 2 mg lysate (RIPA buffer) of COS7 cells expressing flag-RAB39B constructs, 3 h at 4 °C; only the target purified
myc-PICK1 = myc-PICK1 (UniProt Q9EP80); assay: co-IP; lysate (CHAPS buffer) of HEK293T cells co-expressing flag-RAB39B and myc-PICK1, in presence of 3 mM GTPγS; precipitated with anti-myc, 3 h at 4 °C
GST-PICK1 [3] = biological target: GST-PICK1 (UniProt Q9EP80); assay: pull-down; 80 μg GST-PICK1 on glutathione-Sepharose 4B beads, 16 mg mouse brain lysate in HKT buffer, 3 h at 4 °C; only the target purified

binding [1]: binds
B1: PICK1, endogenous in mouse brain lysate, Q62083 1-416 (protein)
chain: MFADLDYDIEEDKLGIPTVPGKVTLQKDAQNLIGISIGGGAQYCPCLYIVQVFDNTPAALDGTVAAGDEITGVNGKSIKGKTKVEVAKMIQEVKGEVTIHYNKLQADPKQGMSLDIVLKKVKHRLVENMSSGTADALGLSRAILCNDGLVKRLEELERTAELYKGMTEHTKNLLRAFYELSQTHRAFGDVFSVIGVREPQPAASEAFVKFADAHRSIEKFGIRLLKTIKPMLTDLNTYLNKAIPDTRLTIKKYLDVKFEYLSYCLKVKEMDDEEYSCIGPRRALYRVSTGNYEYRLILRCRQEARARFSQMRKDVLEKMELLDQKHVQDIVFQLQRFVSTMSKYYNDCYAVLQDADVFPIEVDLAHTTLAYGPNQGSFTDGEEEDEEEEDGAAREVSKDACGATGPTDKGGSWCDS

binding (GST-PICK1 [2]): no binding
B2: flag-ΔER RAB39B (protein, UniProt Q8BHC1)
chain: MEAIWLYQFRLIVIGDSTVGKSCLIRRFTEGRFAVEIEPGKRIKLQIWDTAGQERFRSITRAYYRNSVGGLLLFDITNRRSFQNVHEWLEETKVHVQPYQIVFVLVGHKCDLDTQRQVTRHEAEKLAAAYGMKYIETSARDAINVEKAFTDLTRDIYELVKRGEITIQEGWEGVKSGFVPNVVHSSEEVIKSERRCLC

binding (myc-PICK1): binds
B3: flag-RAB39B (in HEK293T cells) (protein, UniProt Q8BHC1 1-213)
chain: MEAIWLYQFRLIVIGDSTVGKSCLIRRFTEGRFAQVSDPTVGVDFFSRLVEIEPGKRIKLQIWDTAGQERFRSITRAYYRNSVGGLLLFDITNRRSFQNVHEWLEETKVHVQPYQIVFVLVGHKCDLDTQRQVTRHEAEKLAAAYGMKYIETSARDAINVEKAFTDLTRDIYELVKRGEITIQEGWEGVKSGFVPNVVHSSEEVIKSERRCLC

binding (GST-PICK1 [2]): no binding
B4: flag-D44F45AA RAB39B (protein, UniProt Q8BHC1 1-213)
chain: MEAIWLYQFRLIVIGDSTVGKSCLIRRFTEGRFAQVSDPTVGVAAFSRLVEIEPGKRIKLQIWDTAGQERFRSITRAYYRNSVGGLLLFDITNRRSFQNVHEWLEETKVHVQPYQIVFVLVGHKCDLDTQRQVTRHEAEKLAAAYGMKYIETSARDAINVEKAFTDLTRDIYELVKRGEITIQEGWEGVKSGFVPNVVHSSEEVIKSERRCLC

binding (GST-PICK1 [3]): binds
B5: RAB39B, endogenous in mouse brain lysate (protein, UniProt Q8BHC1 1-213)
chain: MEAIWLYQFRLIVIGDSTVGKSCLIRRFTEGRFAQVSDPTVGVDFFSRLVEIEPGKRIKLQIWDTAGQERFRSITRAYYRNSVGGLLLFDITNRRSFQNVHEWLEETKVHVQPYQIVFVLVGHKCDLDTQRQVTRHEAEKLAAAYGMKYIETSARDAINVEKAFTDLTRDIYELVKRGEITIQEGWEGVKSGFVPNVVHSSEEVIKSERRCLC
